This is one part of the list. Binding of human antibodies (heavy:light variable regions, tested as scFv in one mRNA-display pool) to influenza hemagglutinin, with or without the stem antibody CR9114 bound first. Score = (mean enrichment − median) / interquartile range of that screen; higher = more enriched, 0 = typical non-binder. Active = above the paper's cut-off per screen: stems 28; unblocked H1 Solomon Islands 5, H1 Michigan 3, H3 5, H5 19, H7 2.85, both B 5; blocked 9, 7, H5 10, H7 10, B Phuket 10, B Lee 11.5. Scores are scaled within each screen and are no affinities; replicates correlate at about 0.6 to 0.9, and antibodies rare in the pool are noisier.
B1: 008-10-1C03 (protein)
chain 1: EVQLVESGGGLVQPGGSLRLSCEASGFTFSSYWMSWVRQAPGKGLEWVAVMDQDGSDIYYVDSVKGRFTISRDNAKNSLSLQMNSLRAEDTAVYYCARDYWRSGEYWGQGALVTVSS
chain 2: EIVLTQSPATLSLSPGERATLSCRASQSVSSYLAWYQQRPGQAPRLLIHDASNRATGIPARFSGSGSGTDFTLTISSLEPEDFAVYYCQQGNKWPRTFGQGTKVEIK
B2: antibody 3E02 (protein)
chain 1: VQLVESGGGVVQPGRSLRLSCATSGFIFSRYAIHWVRQAPGKGLEWVAVISNDGTKEECADSVKGRFTISRDNSKSTLYLQMNSLRAEDTAVYYCARDATQYGYETNWFFDSWGRGLLVTVSS
chain 2: SYELTQPASVSVSPGQTANITCSGDKLGDKYTSWYQQKPGQAPVLVIYQDTKRPSGIPERFFGSSSGDAATLTISGTQAMDEADYYCQAWVWDSRVVFGGGTKLTVL
B3: K77-2E07 (protein)
chain 1: QVQLVQSGDEVKKPGASMKVSCRSSGFTLTTFYMHWVRQAPGQGLEWVGLIHPNGITTTYAQNFLGRVAMTRDTSTNTVYMDLRSLRSDDTAVYFCARGRAEETWTQRWPPYSLDVWGQGTRVTVSS
chain 2: EIVLTQSPGTLSLSPGERATLSCRASRSISSSYLAWYQQRPGQAPRLLIYGASSRATGIPDRFSGSGSGTDFTLTISTLEPEDFAVYYCQHYGSSPPVLFGPGTKVDIK
B4: R95-1D06 (protein)
chain 1: EVQLVESGGGLVKPGGSLRLSCAASGFTFRSYTMNWVRQAPGKGLEWVSSISTTLSFIYYADSVKGRFTISRDNAKNSLYLQMNSLRAEDTAVYYCARDLNSYGTVDYWGQGTLVTVSS
chain 2: SYELTQPPSVSVAPGQTARIPCGGNNIGSRPVNWYQQKPGQAPVLVVYDDNDRPSGIPERFSGSNSGNTATLTISRVEAADEADFYCQVWDSSRDQSVLGGGTKLTVL
B5: R95-2A05 (protein)
chain 1: QVHLEQSGAEVKKPGASVKVSCKVSGHTLTELSMHWVRQAPGKGLEWVGGFDPEVGKPVYAQNFQGRITMTEDTIWDTAYMELSSLKSEDTAVYYCATGTRAGLPTPLYYYGMDFWGQGTPVTVSS
chain 2: EIVMTQSPATLSVSPGERATLSCRASQGVSSDVVWYQQKPGQAPRPLIYGASTRATGVPGRFTASQSGTEFTLTISSLQSEDFAVYYCQQYNKWPLTFGGGTRVEL
B6: W85-3B07 (protein)
chain 1: QVQLQESGPGLVKPSETLSLTCSVSGDSITSYYCSWIRQSPGKGLEWIGYIYYTGSTNYNPSLKSRVTISVDTSKNQFSLKLSSVTAADTAVYYCARHGQLYDVWSGYYRGPEHRYFDLWGRGTLVTVSS
chain 2: DIVMTQSPDSLAVSLGERATINCKSSQSVLYSSNNRNFLAWYQQKPGQPPKLLISWASARESGVPDRFSGSGSGTDFTLTISNLQAEDVALYYCQQYYTTPYTFGQGTKLEIK

molecular target: Influenza A H1N1 A/Michigan/45/2015 hemagglutinin ectodomain; assay: mRNA display binding score; higher = more enriched on the antigen; conditions: antigen blocked with: 2 µM CR9114 IgG
Procedure: (§1)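 A pool of natively paired antibodies, displayed as scFv on mRNA, was selected once on antigen-coated beads and sequenced before and after; two replicates.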

| Binder | mRNA display binding score |
| --- | --- |
| B1 | inactive: -0.208 |
| B2 | inactive: 0.231 |
| B3 | inactive: 1.51 |
| B4 | inactive: -0.145 |
| B5 | inactive: -0.31 |
| B6 | inactive: 0.26 |

same assay, conditions: antigen blocked with: nothing

| Binder | mRNA display binding score |
| --- | --- |
| B1 | inactive: -0.371 |
| B2 | inactive: 0.0448 |
| B3 | inactive: 1.98 |
| B4 | inactive: -0.0835 |
| B5 | inactive: -0.694 |
| B6 | inactive: 0.0837 |

molecular target: Influenza A H1N1 A/Solomon Islands/3/2006 hemagglutinin ectodomain; assay: as above; conditions: antigen blocked with: 2 µM CR9114 IgG
Procedure: as §1

| Binder | mRNA display binding score |
| --- | --- |
| B1 | inactive: -0.421 |
| B2 | inactive: 0.0907 |
| B3 | inactive: 1.64 |
| B4 | inactive: -0.189 |
| B5 | inactive: -0.0619 |
| B6 | inactive: -0.0937 |

same assay, conditions: antigen blocked with: nothing

| Binder | mRNA display binding score |
| --- | --- |
| B1 | inactive: -0.24 |
| B2 | inactive: 0.582 |
| B3 | inactive: 1.52 |
| B4 | inactive: -0.125 |
| B5 | inactive: -0.532 |
| B6 | inactive: -0.13 |

molecular target: Influenza A H3N2 A/Singapore/INFIMH-16-0019/2016 hemagglutinin ectodomain; assay: as above; conditions: antigen blocked with: nothing
Procedure: as §1

| Binder | mRNA display binding score |
| --- | --- |
| B1 | inactive: -0.421 |
| B2 | inactive: -0.151 |
| B3 | inactive: 1.37 |
| B4 | inactive: 0.0455 |
| B5 | inactive: -0.552 |
| B6 | inactive: -0.364 |

molecular target: Influenza A H5N1 A/Qinghai/1A/2005 hemagglutinin ectodomain; assay: as above; conditions: antigen blocked with: 2 µM CR9114 IgG
Procedure: as §1

| Binder | mRNA display binding score |
| --- | --- |
| B1 | inactive: -0.602 |
| B2 | inactive: 0.00908 |
| B3 | inactive: 2.03 |
| B4 | inactive: -0.505 |
| B5 | inactive: -0.0177 |
| B6 | inactive: 0.0326 |

same assay, conditions: antigen blocked with: nothing

| Binder | mRNA display binding score |
| --- | --- |
| B1 | inactive: -0.269 |
| B2 | inactive: 0.0151 |
| B3 | inactive: 3.78 |
| B4 | inactive: -0.0214 |
| B5 | inactive: -0.44 |
| B6 | inactive: 0.0159 |

molecular target: Influenza A H7N9 A/Shanghai/2/2013 hemagglutinin ectodomain; assay: as above; conditions: antigen blocked with: 2 µM CR9114 IgG
Procedure: as §1

| Binder | mRNA display binding score |
| --- | --- |
| B1 | inactive: -0.0498 |
| B2 | inactive: -0.0101 |
| B3 | inactive: 1.74 |
| B4 | inactive: -0.783 |
| B5 | inactive: 0.0314 |
| B6 | inactive: 0.0508 |

same assay, conditions: antigen blocked with: nothing

| Binder | mRNA display binding score |
| --- | --- |
| B1 | inactive: -0.325 |
| B2 | inactive: 0.409 |
| B3 | active: 3.16 |
| B4 | inactive: -0.0111 |
| B5 | inactive: -0.688 |
| B6 | inactive: 0.214 |

molecular target: Influenza B/Lee/1940 hemagglutinin ectodomain; assay: as above; conditions: antigen blocked with: 2 µM CR9114 IgG
Procedure: as §1

| Binder | mRNA display binding score |
| --- | --- |
| B1 | inactive: -0.0386 |
| B2 | inactive: 10.2 |
| B3 | active: 26.9 |
| B4 | inactive: 0.416 |
| B5 | inactive: 0.177 |
| B6 | inactive: 1.49 |

same assay, conditions: antigen blocked with: nothing

| Binder | mRNA display binding score |
| --- | --- |
| B1 | inactive: -0.319 |
| B2 | active: 27.5 |
| B3 | active: 126 |
| B4 | inactive: 3.63 |
| B5 | inactive: -0.392 |
| B6 | active: 13.2 |

molecular target: Influenza B/Phuket/3073/2013 hemagglutinin ectodomain; assay: as above; conditions: antigen blocked with: 2 µM CR9114 IgG
Procedure: as §1

| Binder | mRNA display binding score |
| --- | --- |
| B1 | inactive: -0.116 |
| B2 | inactive: 0.0213 |
| B3 | active: 42.8 |
| B4 | inactive: 1.51 |
| B5 | inactive: -0.337 |
| B6 | inactive: 2.35 |

same assay, conditions: antigen blocked with: nothing

| Binder | mRNA display binding score |
| --- | --- |
| B1 | inactive: -0.302 |
| B2 | inactive: -0.0738 |
| B3 | active: 44.4 |
| B4 | active: 9.72 |
| B5 | inactive: -0.422 |
| B6 | inactive: 4.3 |
